The list shows a part of the results. At the low end of the ranking, values are background and their order means little.

The target of this test is SIX1 homeodomain (reference allele) (UniProt Q15475). As to the kind of experiment: universal protein binding microarray. Particulars: Universal all-10-mer PBM (8x60K, AMADID 030236), 300 nM GST-tagged protein, Alexa Fluor 488 anti-GST; buffer, salt, pH and temperature not stated; high values mean tight binding; most listed sequences are background and not binding sites; double strand, one strand shown.
Turning to CTTTTGGC, the binding signal is -0.158 E-score.
As to CCTTAACG, the binding signal is 0.00154 E-score.
The value for GGGGATCA was 0.447 E-score.
As for AACGAGAC, the figure is -0.0716 E-score; as for AGAAGCCA, -0.0255 E-score.
The value for GATTGATA was 0.381 E-score.
Regarding CAAAAGAA, the binding signal was -0.132 E-score.
As for AATTCCTA, the binding signal is -0.0452 E-score.
As for AGCATCGG, the figure is -0.0463 E-score; as for CAATTGCG, -0.0326 E-score.
As for CTGAGCGC, the figure is -0.126 E-score; as for CCTCCCCC, -0.13 E-score; as for CATTAATA, 0.154 E-score.
The value for ACAATGAC was -0.174 E-score; that for GCCGAAAC was -0.132 E-score; that for CCGTCGTA was -0.0993 E-score.
Take GAGACGAC: the binding signal came out at 0.0861 E-score.
On to CACTAGGA, for which the binding signal amounted to 0.00767 E-score.
The value for GCACCAGC was -0.165 E-score.
As for AGGCCGAG, the figure is -0.234 E-score; as for AGCGGAAC, -0.0398 E-score; as for ATGGCCCA, -0.228 E-score.
Consider CGGATACA, for which the binding signal is 0.446 E-score.
ACATTGTA: the binding signal is -0.021 E-score.
The value for CGAGCACA was -0.106 E-score.
The value for CTAAAGAA was -0.221 E-score.
On to CCCGAGCG, for which the binding signal was -0.131 E-score.
CAAAATTC: the binding signal is -0.219 E-score.
The value for CGAAACGC was -0.145 E-score.
On to GCTCCACC, for which the binding signal was -0.186 E-score.
As for CAGCCTCG, the figure is -0.0738 E-score.
As for CGCTACAC, the figure is -0.00354 E-score; as for ACACACGT, -0.0577 E-score; as for ATTAACTA, 0.0179 E-score.
Consider GGGCGCAA, for which the binding signal is -0.167 E-score.
The value for GGGTTATA was 0.163 E-score; that for GGAGTCAA was 0.00597 E-score; that for GCTCAAGA was -0.131 E-score.
In the case of GAGTATAA, the binding signal came to 0.179 E-score.
As for CCGGTGCA, the figure is -0.0272 E-score.
As for AGTCACCC, the figure is -0.237 E-score; as for CATTACAG, -0.118 E-score; as for CATGGAGA, 0.111 E-score.
The value for AGTCGGTC was -0.0589 E-score; that for CCGGATAA was 0.299 E-score.
As for CTAAATGC, the binding signal is -0.091 E-score.
As for CGCCGTCC, the figure is -0.159 E-score; as for CTGAAACC, 0.155 E-score; as for ACCGCTGC, -0.143 E-score.
As for GCCTGTAA, the figure is -0.182 E-score.
The value for GCTACAAC was -0.2 E-score.
Take CGAGACTA: the binding signal worked out at 0.121 E-score.
As for AGTTTAGA, the figure is 0.086 E-score.
As for CGTGCCAC, the figure is -0.175 E-score; as for GAGAATCA, 0.0358 E-score.
As for CCATTAGG, the figure is -0.0724 E-score; as for TCGATACA, 0.348 E-score; as for ATACCGAG, 0.304 E-score.
As for AGAAGGGG, the binding signal worked out at 0.103 E-score.
Regarding ACGCACCT, the binding signal was -0.0311 E-score.
The value for CAATACAC was 0.146 E-score.
The value for AGTTATAA was -0.103 E-score.
As for CAGCTCGA, the binding signal was found to be 0.0121 E-score.
Turning to AGCACCCG, the binding signal came to 0.101 E-score.
The value for CCCCGAGG was 0.0411 E-score.
Regarding CGCGAACA, the binding signal is 0.0481 E-score.
As to CTACTACC, the binding signal is 0.0239 E-score.
Take AGTACTAT: the binding signal came to 0.066 E-score.
Take ATCTTTAA: the binding signal was determined as 0.0347 E-score.
In the case of CTTGATTA, the binding signal is -0.0746 E-score.
As for CAGTAAAG, the binding signal was -0.206 E-score.
As for TCAAGAGA, the figure is -0.0728 E-score; as for AAATGTGG, -0.108 E-score.
Consider AAGAGCTC, for which the binding signal is -0.283 E-score.
Consider GACTTGGC, for which the binding signal was -0.25 E-score.
The value for AGTGTTTA was -0.0906 E-score; that for ATATGTTC was 0.334 E-score.
Take GAGGTGGC: the binding signal is -0.246 E-score.
GCAAAGGA: the binding signal was -0.0683 E-score.
For the sequence GTTCCAAC, the binding signal was -0.195 E-score.
In the case of CAGTGGAC, the binding signal is -0.122 E-score.
As for CAAGCCAC, the figure is -0.209 E-score; as for CCCGGTCA, -0.0749 E-score.
The value for GAATATGA was 0.0489 E-score; that for AGTAAGCG was 0.0443 E-score; that for GTTCACGA was -0.0761 E-score.
Regarding AGTTAAAG, the binding signal is -0.163 E-score.
Turning to AGTTACAA, the binding signal is -0.0681 E-score.
The value for GTTAAACA was -0.119 E-score.
The value for AAAGCACA was -0.213 E-score.
The value for CTTCTCCC was -0.07 E-score.
For ATTGCGAA, the binding signal was -0.0642 E-score.
As for ATACCGTG, the figure is 0.384 E-score; as for CAGCGCCG, -0.338 E-score; as for ACGATAGT, 0.215 E-score.
Regarding AATGGTTG, the binding signal was -0.206 E-score.
For the sequence TCCCTCCA, the binding signal worked out at 0.00395 E-score.
As for ACAATTCA, the binding signal was -0.112 E-score.
As for ACTCACTA, the figure is -0.0254 E-score; as for CCGATCGG, 0.319 E-score.
The value for CAATAACC was -0.0682 E-score; that for CGAAGCGA was -0.0224 E-score.
AAGATGGA: the binding signal was determined as 0.108 E-score.
Consider GTTCTCCA, for which the binding signal was -0.072 E-score.
The value for ATGCATAA was -0.00019 E-score; that for CGTCACAC was -0.0792 E-score.
With CTTGCAAA, the binding signal came to 0.00662 E-score.
As for CAGACTCC, the figure is -0.316 E-score; as for CTGGTCAA, -0.203 E-score; as for AGATTCTC, 0.0748 E-score.
For the sequence CCCACTCA, the binding signal was -0.0371 E-score.
As for CAAACCGG, the figure is 0.14 E-score.
CGTTCTGC: the binding signal is -0.0614 E-score.
CTCACCCA: the binding signal was found to be 0.0203 E-score.
For GACCGGGC, the binding signal is -0.0973 E-score.
As for ATCGTCAA, the figure is 0.0973 E-score.
The value for AACGGATC was 0.376 E-score; that for GGACCTAC was -0.0796 E-score.
As for CCTATACA, the figure is 0.102 E-score; as for TACGCAGA, 0.0436 E-score; as for GGAATACC, 0.295 E-score.
With CCAGACCA, the binding signal was -0.0642 E-score.
As for ATGGCGAG, the binding signal is -0.135 E-score.
The value for AAGTAGAC was -0.00797 E-score; that for AATACATG was 0.132 E-score; that for GCCCAGAA was -0.254 E-score.
For the sequence CATCTCGG, the binding signal came to 0.171 E-score.
Take CGCGTAAC: the binding signal was -0.205 E-score.
As for CAACGACG, the figure is -0.194 E-score; as for CGTTTGTC, 0.0311 E-score.
Regarding AGCTGATC, the binding signal was determined as 0.316 E-score.
In the case of CGTGTCAA, the binding signal was 0.0118 E-score.
As for TGAGGGCA, the figure is -0.126 E-score; as for ACGTAAGC, -0.181 E-score.
On to CCGTCTCA, for which the binding signal is 0.268 E-score.
The value for GATGTGGA was 0.112 E-score; that for TGCCTACA was -0.0396 E-score; that for ACAATTTC was -0.106 E-score.
Turning to AGCTCTAC, the binding signal was -0.0856 E-score.
For ACTGCCAT, the binding signal was -0.1 E-score.
Regarding CAATAAAA, the binding signal is -0.127 E-score.
As for ACAGCCGG, the figure is -0.0271 E-score; as for CTTAGCTA, -0.107 E-score.
Consider ACTGGCGC, for which the binding signal was -0.0662 E-score.
GGCCAGCC: the binding signal was -0.27 E-score.
For the sequence ATATCGCG, the binding signal worked out at 0.422 E-score.
As for TACGATAA, the figure is 0.175 E-score.
In the case of AAGCAAAC, the binding signal was -0.17 E-score.
As for GATTGACA, the figure is -0.12 E-score.
As for CCCGACGG, the figure is -0.101 E-score; as for AGGTAATA, 0.0875 E-score.
ATTTGATA: the binding signal amounted to 0.397 E-score.
The value for CCCAGACA was -0.00105 E-score; that for GTCTTCAC was -0.144 E-score; that for CGGGCTGA was 0.0256 E-score.
The value for ACGTTTGA was 0.0327 E-score.
As for AAACACCA, the figure is 0.091 E-score.
CGGTCTCC: the binding signal worked out at 0.0474 E-score.
Consider AGGATGCG, for which the binding signal was found to be 0.0523 E-score.
As for GTTCGGGA, the figure is 0.0573 E-score; as for ACTCTGCA, 0.0202 E-score; as for CCGGATAC, 0.441 E-score.
GGCGGAAC: the binding signal is -0.318 E-score.
For the sequence AGGGGCAG, the binding signal is -0.0274 E-score.
As for AACCCACC, the figure is 0.0531 E-score; as for ACCGCCGC, 0.0253 E-score; as for CGCATAAG, -0.143 E-score.
The value for CCTTTGAG was -0.0717 E-score; that for GCGAAGGA was -0.0644 E-score; that for GTTCAAAC was -0.138 E-score.
Take CGTTACGC: the binding signal was -0.239 E-score.
The value for TAATGTAA was 0.031 E-score; that for GACGGTAA was -0.0895 E-score.
As for CATCTAAA, the figure is -0.00811 E-score; as for GTGCCACA, -0.151 E-score.
Consider CTAAAAAC, for which the binding signal was -0.172 E-score.
The value for CGTTAGTC was -0.124 E-score.
As for AGTAGACG, the figure is 0.114 E-score.
In the case of ATAAGGCA, the binding signal was found to be 0.0508 E-score.
The value for CACGCACC was -0.167 E-score.
As for ATTATGGG, the binding signal worked out at 0.144 E-score.
As for AATTAAAA, the figure is -0.229 E-score; as for ATTTGCTA, -0.185 E-score; as for CACATCAC, -0.0514 E-score.
As for TGCCTCAA, the figure is -0.0664 E-score.
In the case of GCGTAGCA, the binding signal was -0.0942 E-score.
The value for CGGTACAC was 0.138 E-score.
The value for TTGTACAA was -0.27 E-score; that for CCACATGA was 0.00388 E-score.
The value for GCCGTATA was 0.283 E-score; that for AGCGTTAT was -0.0413 E-score.
GCATGTTA: the binding signal was -0.178 E-score.
As for ACCCGGGT, the figure is 0.377 E-score; as for ACTTCTAA, -0.206 E-score; as for AAAAATAG, -0.215 E-score.
On to CAACATGG, for which the binding signal was determined as 0.0785 E-score.
The value for TTGTAAAA was -0.208 E-score.
For GTATAGCA, the binding signal was determined as 0.156 E-score.
Regarding ATATTTAC, the binding signal amounted to 0.142 E-score.
As for CTAAGCAA, the figure is -0.24 E-score.
As for CGCGCCGA, the figure is -0.0268 E-score.
The value for ACACGAGT was 0.0536 E-score.
GAATAGCC: the binding signal is -0.0103 E-score.
Turning to TCCTGCAA, the binding signal stood at 0.0123 E-score.
GCGCGAAA: the binding signal was -0.105 E-score.
For CTTCGGGC, the binding signal was 0.00522 E-score.
Consider GCCAGTCC, for which the binding signal was -0.129 E-score.
As for AACATCAA, the figure is -0.237 E-score.
As to AGACTACA, the binding signal is -0.0342 E-score.
As for ATAGGGTC, the figure is 0.146 E-score; as for AACTAATC, 0.124 E-score; as for AGCAAGTG, -0.0967 E-score.
The value for ACACGTTG was -0.157 E-score.
As for GAAAATCA, the binding signal was -0.127 E-score.
In the case of CGAGTCAC, the binding signal is -0.115 E-score.
The value for GATTCTTA was -0.0677 E-score; that for CGAGCCAA was -0.149 E-score.
As for ACACGATC, the figure is 0.266 E-score; as for CCCCTTCC, 0.164 E-score.

The values above are taken from article PMC10668032.
